# Data as given in PubChem BioAssay AID488969 (Vanderbilt High Throughput Screening Facility, 2010).
# The full ranking holds about 110,000 compounds; the median of “z-score” is about -0.1, and the highest 2% start at about 2. The list shows a part of the results.
# Target: Metabotropic glutamate receptor 8 (Rattus norvegicus) (UniProt P70579)
# Test: rat mGluR8 modulators via GIRK flux, primary screen, cell-based, thallium flux, HTS (AID 488969)
# Conditions: HEK293 rat mGluR8, GIRK (G protein-gated inwardly rectifying potassium channel) thallium flux, FluoZin2; at 10 µM; stronger effect = higher value; submaximal glutamate (EC20) added with thallium
# Chain of UniProt P70579 (P70579 whole entry, looked up): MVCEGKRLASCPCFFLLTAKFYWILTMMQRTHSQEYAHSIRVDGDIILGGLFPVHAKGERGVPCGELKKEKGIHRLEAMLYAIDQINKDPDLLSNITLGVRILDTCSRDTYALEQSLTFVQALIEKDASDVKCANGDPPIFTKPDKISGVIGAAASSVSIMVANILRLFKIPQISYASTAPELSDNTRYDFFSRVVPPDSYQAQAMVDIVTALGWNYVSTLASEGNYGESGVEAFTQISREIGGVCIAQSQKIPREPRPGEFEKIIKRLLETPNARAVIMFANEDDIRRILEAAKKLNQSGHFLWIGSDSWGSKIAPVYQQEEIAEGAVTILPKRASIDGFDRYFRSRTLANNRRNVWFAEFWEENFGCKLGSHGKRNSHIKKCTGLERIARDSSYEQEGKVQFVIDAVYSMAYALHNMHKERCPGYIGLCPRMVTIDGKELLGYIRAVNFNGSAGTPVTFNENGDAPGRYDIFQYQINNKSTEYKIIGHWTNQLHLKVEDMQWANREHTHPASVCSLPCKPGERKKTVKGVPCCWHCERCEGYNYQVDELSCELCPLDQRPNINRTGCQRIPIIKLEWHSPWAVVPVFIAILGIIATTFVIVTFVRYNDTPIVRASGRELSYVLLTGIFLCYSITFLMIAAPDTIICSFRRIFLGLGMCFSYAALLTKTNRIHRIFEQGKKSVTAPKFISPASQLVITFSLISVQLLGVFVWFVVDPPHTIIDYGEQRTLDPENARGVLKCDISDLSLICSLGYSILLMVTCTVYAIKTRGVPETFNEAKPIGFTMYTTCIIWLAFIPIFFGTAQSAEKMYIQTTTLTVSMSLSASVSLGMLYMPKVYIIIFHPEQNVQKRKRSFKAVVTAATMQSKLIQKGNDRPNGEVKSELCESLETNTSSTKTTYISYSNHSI
row,Structure (SMILES),z-score
1,CN1C(=O)C2ON(c3ccccc3)C(c3cccs3)C2C1=O (configuration not stated),-0.0304
2,O=C(Nc1cccc(Cl)c1)Nc1ccccc1C(=O)NCc1ccco1,-0.386
3,N#Cc1cc(-c2ccccc2)oc1NC(=O)c1ccco1,-0.229
4,CC(/C=C/C(=O)c1ccc(C)cc1)=C\c1ccccc1,0.454
5,CN1/C(=C\C=N\NC(=O)c2ccc(O)cc2)C(C)(C)c2ccccc21,-0.895
6,O=C(c1ccccc1)c1cnc(Nc2ccc(Cl)c(Cl)c2)s1,-0.0695
7,CCn1c(SCc2ccc(C(=O)Nc3cc(C)cc(C)c3)cc2)nnc1-c1ccncc1,-0.36
8,O=C(Nc1nc2ccc(F)cc2s1)C1CCN(S(=O)(=O)c2cc([N+](=O)[O-])ccc2Cl)CC1,-0.00866
9,Cc1ccc2[nH]cc(C(=O)NCc3cccs3)c(=O)c2c1,0.0178
10,O=C(Oc1ccc(-c2cn3c(n2)SCC3)cc1)c1ccccc1,1.09
11,CCCCNC(=O)c1c(C)cc(=O)oc1C,0.103
12,CN(C)S(=O)(=O)c1cccc(C(=O)N2CCN(Cc3ccccc3)CC2)c1,1.37
13,O=c1c2ccccc2nc2ccc(N3CCOCC3)nn12,-0.0479
14,Cc1cc2c(ncn2Cc2ccccc2)c([N+](=O)[O-])c1C,-0.611
15,COc1cccc(C(C#N)N2N=C(C)CC2(C)C)c1O (configuration not stated),-0.121
16,O=C(O)C1C2C=CC(C2)C1C(=O)Nc1ccc(C(=O)N2CCCCC2)c(Cl)c1 (configuration not stated),0.0164

row,Structure (SMILES),z-score
1,CCOc1ccc(C(=S)NC2CCCCC2)cc1OC,-0.0762
2,Cc1cc(C)c[n+](-c2nc([O-])sc2C=O)c1,0.00581
3,CCn1cc(C(=O)NCC2COc3ccccc3O2)c2cc(OC)c(OC)cc2c1=O (configuration not stated),-0.548
4,CC(C)(C)C(=O)NC(=S)N1CCCC1,-0.128
5,Cc1cc(-c2n[nH]c(=S)n2-c2ccccc2)nn1C,-0.256
6,COc1cc(/C=C2\C(=O)ON=C2c2ccccc2)cc(OC)c1OC,-0.0771
7,COc1ccc2nc(SCc3cccnc3)c(C#N)cc2c1,-0.0679
8,CC(NC(=O)Nc1ccccn1)N1C(=O)C2C3C=CC(C3)C2C1=O (configuration not stated),1.82
9,CCC(=O)Nc1c(OC(=O)CC)ccc2c(C)cc(=O)oc12,0.0482
10,CC1=C/C(=C\c2ccc(Br)o2)C(=O)O1,-0.119
11,O=C(CN1CCN(c2ncccn2)CC1)NCc1ccccc1,0.306
12,Cc1ccc(CNC(=O)[C@@H]2CCC(=O)N2Cc2ccco2)cc1,-0.0544
13,COc1ccc(Nc2nc(C(F)(F)F)nc(C)c2C#N)cc1,0.692
14,CC(Sc1ccc2c(c1)OCCO2)C(=O)Nc1ncc(Cl)cc1Cl (configuration not stated),-0.106
15,Cc1ccc(CC2CC(=O)N(Cc3ccco3)C2=O)cc1 (configuration not stated),-0.132
16,Cc1ccc(O)c(-c2cc(C(=O)Nc3ccc(S(=O)(=O)Nc4nc(C)cc(C)n4)cc3)[nH]n2)c1,-0.0927
